Experimental data from the DeepSol protein solubility set.

Assay: soluble on expression in E. coli; label from the status in PepcDB or PDB records

With “MKLIESNDTVVFPEGVTFTVKNRIVHVTGPRGTIRKDFRHLHMEMERIGKSTLRVRKWFGVRKELAAIRTVCSHIKNMIKGVTVGFRYKMRSVYAHFPINVTLQDGNRTVEIRNFLGEKIVRRVPLPEGVIATISTAQKDEIVVEGNDVQFVSQAAARIQQSTAVKEKDIRKFLDGIYVSEKTTIVPTD” the “soluble on expression in E. coli” value was “soluble”.
With “YPLDGAARGEDTSMNLVQKYLENYYDLKKDVKQFVRRKDSGPVVKKIREMQKFLGLEVTGKLDSDTLEVMRKPRCGVPDVGHFRTFPGIPKWRKTHLTYRIVNYTPDLPKDAVDSAVEKALKVWEEVTPLTFSRLYEGEADIMISFAVREHGDFYPFDGPGNVLAHAYAPGPGINGDAHFDDDEQWTKDTTGTNLFLVAAHEIGHSLGLFHSANTEALMYPLYHSLTDLTRFRLSQDDINGIQSLYGPPPDSPET” the “soluble on expression in E. coli” value was “soluble”.
With “MGHHHHHHSHMEIGSAGPAGAQPLLMVPRRPGYGTMGKPIKLLANCFQVEIPKIDVYLYEVDIKPDKCPRRVNREVVDSMVQHFKVTIFGDRRPVYDGKRSLYTANPLPVATTGVDLDVTLPGEGGKDRPFKVSIKFVSRVSWHLLHEVLTGRTLPEPLELDKPISTNPAHAVDVVLRHLPSMKYTPVGRSFFSAPEGYDHPLGGGREVWFGFHQSVRPAMWKMMLNIDERDLWQQCGE” the “soluble on expression in E. coli” value was “not soluble”.
With “MLRHKTKRGHASLDCLKVFDGIPPPYDKKKRMVVPAALKVVRLKPTRKFALLGRQAQEVRWKYQAVTATLEEKRKEKAKIHYWKKKQLMRLRKQAEKNVKKN” the “soluble on expression in E. coli” value was “not soluble”.
With “TCVFEKENDPTVLRSPSAGKLTQYTVEDGGHVEAGSSYAEMEVMKMIMTLNVQERGRVKYIKRPGAVLEAGCVVARLELDDPSKVHP” the “soluble on expression in E. coli” value was “soluble”.
With “MDSQGRKVIVVDNGTGFVKCGYAGTNFPAHIFPSMVGRPIVRSTQRVGNIEIKDLMVGEECSQLRQMLDINYPMDNGIVRNWDDMAHVWDHTFGPEKLDIDPKECKLLLTEPPLNPNSNREKMFQVMFEQYGFNSIYVAVQAVLTLYAQGLLTGVVVDSGDGVTHICPVYEGFALHHLTRRLDIAGRDITKYLIKLLLQRGYNFNHSADFETVRQMKEKLCYIAYDVEQEERLALETTVLSQQYTLPDGRVIRLGGERFEAPEILFQPHLINVEKAGLSELLFGCIQASDIDTRLDFYKHIVLSGGTTMYPGLPSRLEKELKQLYLDRVLHGNTDAFQKFKIRIEAPPSRKHMVFLGGAVLANLMKDRDQDFWVSKKEYEEGGIARCMAKLGIKA” the “soluble on expression in E. coli” value was “not soluble”.
For “MKVNPFVSSDSGKSRKAHFNAPSHERRRIMSAPLTKELRTKHGIRAIPIRTDDEVVVMRGRHKGNTGRVLRCYRKKFVIHIDKITREKANGSTVHIGIHPSKVAITKLKLDKDRRALVERKAAGRSRVTGILKGKHTDETVN”, the “soluble on expression in E. coli” value was “soluble”.
With “MAAIRKKLVIVGDGACGKTCLLIVFSKDQFPDVYVPTVFENYVADIEVDGKQVELALWDTAGQEDYDRLRPLSYPDTDVILMCFSIDSPDSLENIPEKWTPEVRHFCPNVPIILVGNKRDLRSDPQTVRELAKMKQEPVKPEQGRAIAEQIGAFAYLECSAKTKDGIREVFEKATQAALQQKKKKKSKCMIL” the “soluble on expression in E. coli” value was “not soluble”.
